In paper PMC4336329 (PLoS ONE, 2015):
Screen size: about 310,000 compounds; about 14,000 (4.5%) showed an effect of 50% or more. The effect is printed as a negative number. Some of the results follow.

molecular target: human ether-à-go-go-related gene (hERG) potassium channel (human, UniProt Q12809); test: primary screen, population patch clamp on CHO cells stably expressing hERG
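Also: peak tail current of the secondary pulse compared with the same well before compound.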

Chain of human ether-à-go-go-related gene (hERG) potassium channel (Q12809 whole entry, looked up): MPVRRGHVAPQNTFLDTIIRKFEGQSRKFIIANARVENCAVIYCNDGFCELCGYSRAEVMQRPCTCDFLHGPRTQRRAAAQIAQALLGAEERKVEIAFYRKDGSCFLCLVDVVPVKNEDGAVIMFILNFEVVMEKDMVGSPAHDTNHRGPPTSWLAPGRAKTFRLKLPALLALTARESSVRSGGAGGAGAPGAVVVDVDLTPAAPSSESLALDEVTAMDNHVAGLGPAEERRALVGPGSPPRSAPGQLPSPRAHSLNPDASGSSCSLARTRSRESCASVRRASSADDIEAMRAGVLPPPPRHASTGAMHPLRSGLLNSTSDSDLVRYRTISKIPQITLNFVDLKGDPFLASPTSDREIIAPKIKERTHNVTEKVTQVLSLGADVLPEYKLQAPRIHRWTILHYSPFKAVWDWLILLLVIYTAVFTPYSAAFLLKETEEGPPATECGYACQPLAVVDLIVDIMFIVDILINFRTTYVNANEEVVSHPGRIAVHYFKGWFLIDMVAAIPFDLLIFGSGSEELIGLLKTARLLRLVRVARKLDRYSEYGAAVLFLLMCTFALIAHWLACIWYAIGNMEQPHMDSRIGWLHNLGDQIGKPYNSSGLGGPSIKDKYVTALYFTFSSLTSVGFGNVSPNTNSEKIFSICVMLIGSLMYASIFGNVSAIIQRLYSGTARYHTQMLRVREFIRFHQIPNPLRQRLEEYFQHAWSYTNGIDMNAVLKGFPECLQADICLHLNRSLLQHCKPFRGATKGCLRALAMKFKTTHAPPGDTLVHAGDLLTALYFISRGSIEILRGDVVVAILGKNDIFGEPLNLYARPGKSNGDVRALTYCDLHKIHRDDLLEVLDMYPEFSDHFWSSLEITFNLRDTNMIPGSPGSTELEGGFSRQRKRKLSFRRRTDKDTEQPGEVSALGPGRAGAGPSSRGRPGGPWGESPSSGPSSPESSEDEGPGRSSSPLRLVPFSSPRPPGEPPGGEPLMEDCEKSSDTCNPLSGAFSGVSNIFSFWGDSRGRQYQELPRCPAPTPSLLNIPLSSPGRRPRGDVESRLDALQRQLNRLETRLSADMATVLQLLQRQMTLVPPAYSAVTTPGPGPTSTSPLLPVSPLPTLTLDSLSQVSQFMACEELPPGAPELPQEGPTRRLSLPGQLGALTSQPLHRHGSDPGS

Compound | hERG current change (%, negative = inhibition) at 10uM [%]
O=C(NCC(=O)N1CCN(C(=O)c2ccco2)CC1)c1cccc(Cl)c1 | -48.6
C/C(=N\NC(=O)c1ccc(O)cc1)c1cccc(NC(=O)c2ccccc2C)c1 | 15.7
Cc1cc(C)cc(NC(=S)NCc2cccn2C)c1 | 12.5
Fc1ccc(N/N=C/c2ccc(N3CCOCC3)cc2)c(F)c1 | 11.4
Cc1ccccc1S(=O)(=O)Cc1ccc(C(=O)NC2CCCCC2)o1 | -1.84
COCCNC(=O)c1ccc(C(=O)C(=O)c2ccccc2)cc1 | 6.38
CC(C)CC(=O)Nc1cccc(-c2nc3ccccc3o2)c1 | -6.95
O=C(c1ccc(NC2=NC3CS(=O)(=O)CC3S2)cc1)N1CCN(c2ccccc2F)CC1 (stereo not shown) | 7.83
CCC1CN(C)C2Cc3c([nH]c4ccccc34)C(=O)CC1C2C(=O)OC (stereo not shown) | 5.37
CCOC(=O)N1CCN(CC(=O)Nc2ccccc2C(=O)Nc2ccccc2)CC1 | -21.3
CCOCCn1ccc2c(OCC(=O)NCc3ccccc3)cccc2c1=O | -21.4
COc1ccc(CCNC(=O)c2ccc3ccccc3n2)cc1OC | 14.1
CCC(=O)c1cn(CC(=O)Nc2ccccc2F)c2ccccc12 | 20.3
CCCCn1c(SCC(=O)Nc2cccc(OC)c2)nc2ccc(N3CCOCC3)cc2c1=O | -9.77
CCOC(=O)COc1cnc2ccccc2n1 | 12.7
Fc1ccccc1-c1nc(-c2ccccc2)no1 | 4.72
Cc1cc(NC(=O)CSc2nc(-c3cccs3)nc3ccccc23)no1 | 14.7
Clc1ccc(CSc2cc3c(nn2)-c2ccccc2CC3)cc1 | 23
NC(=O)CCN1CCN(Cc2cn[nH]c2-c2cccc3ccccc23)CC1 | -24.9
COc1cc(/C=N/Nc2nc(-c3ccc(S(=O)(=O)N(C)C)cc3)cs2)ccc1O | 2.99
CCOC(=O)Cc1csc(NC(=O)CCCc2ccccc2)n1 | 11.5
CCOC(=O)CSc1nc2sc3c(c2c(=O)[nH]1)CC(C)(CC)OC3 (stereo not shown) | 18.1

Compound | hERG current change (%, negative = inhibition) at 10uM [%]
Nc1nnc(CSCc2ccccc2)s1 | 1.46
Cc1ccc2nc(C(O)C(O)c3nc4ccc(C)cc4[nH]3)[nH]c2c1 (stereo not shown) | -6.37
CCN1C(=O)[C@@H]2[C@@H](c3ccc(-c4ccc(C(C)=O)cc4)c(OC)c3)N3CCC[C@@]3(C(=O)OC)[C@@H]2C1=O.O=C(O)C(F)(F)F | -25
CC(C)C[C@H](NC(=O)c1nc[nH]c1C(=O)N[C@@H](CCCCNC(=O)OC(C)(C)C)C(=O)OC(C)(C)C)C(=O)OC(C)(C)C | 3.39
COc1ccc(-n2c(SCc3ccc(C#N)cc3)nnc2-c2ccccn2)cc1 | -58.3
Cc1cccc(C)c1NC(=O)CN1CCc2ccccc2C1 | 8.31
O=C(Nc1ccc(OC(F)(F)F)cc1)c1ccc(-n2cncn2)nc1 | -6.13
Cc1ccc(-n2nnc3c(=O)n(CC(=O)N4CCC(C)CC4)cnc32)cc1 | -37.5
CCCCN(C(=O)c1cccc(N2C(=O)c3ccccc3C2=O)c1)c1c(N)n(CC(C)C)c(=O)[nH]c1=O | -3.19
Cc1cccc(NC(=O)CCC(=O)N/N=C/c2ccco2)c1C | 5.02
Nc1ccc(Oc2ccc3c(c2)OCO3)cc1 | 0.709
O=C(O)CCC(=O)N1CCC[C@H]1C(=O)O | -16.3
COc1ccc(-n2ccnc(SCC(=O)NCc3ccccc3Cl)c2=O)cc1 | -22.7
Cc1cnc(-c2nnc(N(C)C(=O)c3cccnc3)s2)cn1 | 9.2
CC(O)(C#CCN1CCCC1)c1ccccc1 (stereo not shown) | -2.57
C=CCSc1nccc(-c2nn(-c3ccc(C)cc3)ccc2=O)n1 | -8.82
CCCCn1c(NC(=O)c2ccc(F)cc2)c(C#N)c2nc3ccccc3nc21 | 6.88
O=C(COC(=O)c1ccc(Cl)nc1)Nc1ccc(S(=O)(=O)N2CCCC2)cc1 | -31.5
CCOc1ccccc1N(CC(=O)NCC1CCCO1)C(=O)CCC(=O)Nc1nccs1 (stereo not shown) | -7.36
C#Cc1cccc(NC(=O)C2CCN(C(C)=O)CC2)c1 | 25.8
CSc1ccccc1NC(=O)CN(C)CC(=O)Nc1ccc(Cl)cc1F | -31.4
CCCCCCNC(=O)CCNC(=O)c1cc(OC)c(OC)c(OC)c1 | -3.86

Compound | hERG current change (%, negative = inhibition) at 10uM [%]
CC1CCN(Cc2c(C(=O)N/N=C/c3cccc(C(F)(F)F)c3)nnn2-c2nonc2N)CC1 | 13.1
Cc1cc(S(=O)(=O)N2CCOCC2)ccc1OCC(=O)NCCCn1ccnc1 | 10.2
Cc1ccc(-n2c(C)cc(C)c(C#N)c2=O)cc1C | 22.7
Clc1cccc(CSc2ncn(-c3ccccc3)n2)c1 | -8.62
CC1=CC(C)C2(CO)COC(c3ccc(O)cc3)C1C2C (stereo not shown) | 24.9
Cc1cc(C)cc(NC(=O)CN(C)S(=O)(=O)c2cccc3nsnc23)c1 | -25.9
COc1ccc(-c2nn(CCC#N)cc2/C=N/O)cc1OC | -4.29
CC[C@@H]1CC=C[C@H]2[C@H]1C(=O)N(Cc1ccccc1)[C@H]2c1ccc(C(F)(F)F)cc1 | 6.12
NC(=O)Nn1c(CCC(=O)O)ccc1-c1ccc(Cl)cc1 | -2.79
Cn1c(Cn2c(=O)sc3ccccc32)nnc1SCC(=O)NCc1ccc2c(c1)OCO2 | -9.47
CCOc1ccc(NC(=O)Cn2cc(C(=O)CC)c3ccccc32)cc1 | 14.7
CCN(c1nc(C)cc(OC)n1)S(=O)(=O)c1ccccc1 | -20
N#C/C(=C\c1cn(CC(=O)N2CCCC2)c2ccccc12)C(=O)NCc1ccc2c(c1)OCO2 | -6.91
Nc1ccc(CN2CCOCC2)cc1 | 22.3
CC(C)C[C@H]1COCCS(=O)(=O)N1Cc1ccccc1F | -18.4
C=C(C)C1CC=C(C)/C(=N/NC(=O)COc2ccc(C)cc2)C1 (stereo not shown) | 14.6
CCOc1ccc2nc(N3CCC(C(=O)N4CCN(C(=O)c5ccco5)CC4)CC3)sc2c1 | -81.7
O=C(NCc1cccnc1)C(C(=O)c1ccc(F)cc1)n1ccccc1=O (stereo not shown) | -6.73
Cc1ccc(S(=O)(=O)N2CCC(=O)N(CCOCc3cccc(Cl)c3)CC2)cc1 | -36.7
Cn1c(=O)oc2cc(S(=O)(=O)NCc3ccc(Cl)cc3)ccc21 | -13
Cc1cc(C(=O)COC(=O)c2ccc[nH]c2=O)c(C)n1CCc1ccc(F)cc1 | -16.6
CC1CCN(C(=O)CSc2nnc(-c3ccccc3F)o2)CC1 | -8.38

Compound | hERG current change (%, negative = inhibition) at 10uM [%]
CC(C)(C)NC(=O)c1ccc2c3c(cccc13)CC2 | -51.4
CNC(=S)N/N=C(\C)c1ccc(-n2ccnc2)cc1 | -21.5
COCCN(C(=O)c1c(C)noc1C)c1c(N)n(CC(C)C)c(=O)[nH]c1=O | 12.2
Cc1ccccc1CSc1nnc(-c2ccccn2)n1N | 1.45
CCC(=O)c1ccc(OCC(=O)Nc2cccc(S(=O)(=O)N(C)c3ccccc3)c2)cc1 | -19.6
Cc1ccc(C2(c3ccc(C)cc3)NC(=O)N(CC(N)=O)C2=O)cc1 | -12.4
COc1ccc(NC(=O)C2CCN(S(=O)(=O)c3ccc4c(c3)CC(C)N4C(C)=O)CC2)c(OC)c1 (stereo not shown) | -13.7
Cc1cc(Nc2ccc(Cl)cc2)nc(N)n1 | -30.8
Cc1ccc2cc(CN(CCN(C)C)C(=O)Nc3ccc(Cl)cc3)c(=O)[nH]c2c1 | -70.5
CC(C)COc1ccc(C(=O)Nc2ccc([N+](=O)[O-])cc2)cc1 | 26.9
FC(F)(F)c1ccc(Sc2nnc(-c3cccs3)n2CC2CCCO2)nc1 (stereo not shown) | -17.1
COC(=O)[C@H](C)NC(=O)NC1CCN(Cc2ccccc2)CC1 | -1.96
COc1ccc(CNc2cc(C)nc3ncnn23)c(OC)c1 | -8.93
Cc1c(NC(=O)/C=C/C(=O)O)cccc1[N+](=O)[O-] | 9.88
CC1/C(=N/O)CC(c2ccccc2)NC1c1ccccc1 (stereo not shown) | 2.45
COC(C/C=C\C(=O)[C@@H](C)OCc1ccccc1)OC | 3.6
O=C(COc1coc(CN2CCN(c3ccccc3F)CC2)cc1=O)Nc1ccccc1 | 30.9
COc1ccc(CNCc2cn(-c3cccc(F)c3)nc2-c2ccc(C)o2)cc1 | -55.5
C/C(=N/NC(=O)c1cc2ccccc2cc1O)c1ccco1 | 1.77
CCCOP(=O)(c1ccccc1)c1ccccc1 | 10.1
CN1C(=O)N(C)C(=O)C2(Cc3cc(NC(=O)c4ccc(F)cc4)ccc3N3CCCC32)C1=O (stereo not shown) | -8.77
Cn1cc(CCC(=O)NCc2ccc(Cl)cc2)c2ccccc21 | 9.36
